According to the supplement of paper PMC3334620:
The full ranking holds about 33,000 sequences; the median of “E-score (-0.5 to 0.5)” is about -0.01, and the highest 2% start at about 0.26. This is one part of the list.

What follows are sequences tested against Ste12 (UniProt P13574) (assay: PBM E-score (8-mer binding enrichment) (E-score (-0.5 to 0.5)); higher = stronger / more preferred TF binding; most listed sequences are background and not binding sites). Conditions: protein concentration: 200 nM; construct: GST-DNA-binding domain.
Procedure: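 Universal 'all 10-mer' protein binding microarrays (Agilent AMADID 015681) probed with GST-tagged S. cerevisiae TFs (full-length or DBD) made by in vitro transcription/translation (PURExpress), about 100-200 nM. Bound TF was detected with fluorescent anti-GST. Each ungapped 8-mer (which stands for itself and its reverse complement) is scored by the PBM enrichment score (E-score), a modified Wilcoxon-Mann-Whitney statistic from -0.5 to +0.5, computed with the Universal PBM Analysis Suite. Scale: above 0.35 generally sequence-specific binding.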
With AGGTCACC the “PBM E-score” value was -0.313.
For AGCCAGAG, the “PBM E-score” value was 0.00321.
AGATCATG was tested, and the “PBM E-score” value was -0.223.
In the case of ACGCCGGG, the “PBM E-score” value is reported as -0.00121.
With ACCCAGCT the “PBM E-score” value was -0.071.
CGTGTTAC was tested, and the “PBM E-score” value was 0.0162.
AGGGCATA was tested, and the “PBM E-score” value was -0.0532.
With TACAGGCA the “PBM E-score” value was -0.0816.
GTGTACAC was tested, and the “PBM E-score” value was -0.224.
For ATTAAATC, the “PBM E-score” value was 0.248.
In the case of GTATAATA, the “PBM E-score” value is reported as 0.119.
With ATTGATTA the “PBM E-score” value was 0.169.
ACGTCGCC was tested, and the “PBM E-score” value was 0.096.
ACCGGGGG was tested, and the “PBM E-score” value was -0.274.
With GTCCTAAA the “PBM E-score” value was 0.0583.
GTGAGTAA was tested, and the “PBM E-score” value was 0.0208.
In the case of ATATCAAT, the “PBM E-score” value is reported as 0.21.
With ACATCTGA the “PBM E-score” value was -0.24.
CGAAGTAA was tested, and the “PBM E-score” value was 0.0731.
With GCGATACA the “PBM E-score” value was -0.211.
For ATGGCCCC, the “PBM E-score” value was -0.0581.
With ATCCTCTG the “PBM E-score” value was -0.0949.
For AATTGCAT, the “PBM E-score” value was 0.0393.
In the case of CTAGATAA, the “PBM E-score” value is reported as 0.0399.
In the case of CCGCGCTA, the “PBM E-score” value is reported as 0.0861.
With ACGTGTAT the “PBM E-score” value was -0.045.
In the case of AACACTAG, the “PBM E-score” value is reported as 0.0717.
ATACGGCA was tested, and the “PBM E-score” value was 0.116.
With ATGAGTTA the “PBM E-score” value was -0.0873.
For AAATTTCC, the “PBM E-score” value was 0.00403.
AGTAGGAT was tested, and the “PBM E-score” value was -0.0907.
In the case of ATACTAGA, the “PBM E-score” value is reported as 0.103.
For TTCCAAAA, the “PBM E-score” value was 0.277.
With CGCGGGTA the “PBM E-score” value was 0.0349.
With AACGACTG the “PBM E-score” value was -0.0997.
In the case of AGCTGCAT, the “PBM E-score” value is reported as -0.275.
With CACCTACG the “PBM E-score” value was -0.125.
GTTCCATA was tested, and the “PBM E-score” value was 0.145.
For ACAAATGT, the “PBM E-score” value was 0.101.
In the case of CAGCAAGG, the “PBM E-score” value is reported as -0.117.
GAGGAAGA was tested, and the “PBM E-score” value was 0.151.
In the case of AGGGATGA, the “PBM E-score” value is reported as -0.0593.
With CAGAATTA the “PBM E-score” value was 0.123.
With CAGTGGCA the “PBM E-score” value was -0.108.
For CTCGCGTA, the “PBM E-score” value was -0.0404.
GATGTGGC was tested, and the “PBM E-score” value was -0.115.
GTGTACCA was tested, and the “PBM E-score” value was -0.0971.
CCAGGACC was tested, and the “PBM E-score” value was -0.124.
With ATTCACTA the “PBM E-score” value was -0.0173.
GAGCGGAC was tested, and the “PBM E-score” value was -0.175.
In the case of TATATCGA, the “PBM E-score” value is reported as 0.232.
TGCACCCA was tested, and the “PBM E-score” value was -0.0545.
In the case of CCAACCCC, the “PBM E-score” value is reported as 0.155.
ACCATTAC was tested, and the “PBM E-score” value was 0.0314.
In the case of CAACGTGG, the “PBM E-score” value is reported as -0.0597.
With ATAGGGTC the “PBM E-score” value was -0.0645.
With AGGTAGAC the “PBM E-score” value was -0.14.
For CGAAAGCA, the “PBM E-score” value was -0.0179.
For GACTTCTC, the “PBM E-score” value was -0.172.
For CATTGTCA, the “PBM E-score” value was 0.036.
In the case of CTAACGAC, the “PBM E-score” value is reported as -0.115.
For ACTGTGCC, the “PBM E-score” value was -0.218.
For AAGATCCG, the “PBM E-score” value was -0.192.
With GGTTTAGA the “PBM E-score” value was 0.175.
With ATCCATGC the “PBM E-score” value was -0.082.
CCAACGTA was tested, and the “PBM E-score” value was -0.0608.
In the case of CCCTGAGA, the “PBM E-score” value is reported as -0.0977.
In the case of CGAGGCCC, the “PBM E-score” value is reported as -0.0445.
GGACAACC was tested, and the “PBM E-score” value was 0.00984.
For AACCTCCG, the “PBM E-score” value was -0.101.
TGAAACAA was tested, and the “PBM E-score” value was 0.493.
In the case of TACGCAGA, the “PBM E-score” value is reported as -0.0364.
With ATCTGGGG the “PBM E-score” value was -0.207.
In the case of CGTAAGAC, the “PBM E-score” value is reported as -0.117.
For GCGTCCCA, the “PBM E-score” value was 0.162.
In the case of AAAGCCCT, the “PBM E-score” value is reported as -0.13.
TAGTATAA was tested, and the “PBM E-score” value was 0.109.
In the case of GCGTGGTA, the “PBM E-score” value is reported as 0.0425.
ACGAGGAA was tested, and the “PBM E-score” value was 0.162.
In the case of ACGCGACT, the “PBM E-score” value is reported as -0.133.
For ATCACCTC, the “PBM E-score” value was -0.0665.
GTAGGGGA was tested, and the “PBM E-score” value was -0.127.
In the case of ATGCCAAT, the “PBM E-score” value is reported as 0.0487.
For AGCGTCCC, the “PBM E-score” value was 0.0544.
With GAATAAAC the “PBM E-score” value was 0.24.
GTTTACCA was tested, and the “PBM E-score” value was -0.0517.
In the case of ATCGATAG, the “PBM E-score” value is reported as -0.0348.
In the case of CATCTTAG, the “PBM E-score” value is reported as 0.00228.
With ATCTCGGG the “PBM E-score” value was -0.00442.
In the case of GCAGACCA, the “PBM E-score” value is reported as -0.217.
For ACGCGACA, the “PBM E-score” value was 0.0537.
For GCACTTTA, the “PBM E-score” value was 0.00477.
ACTCCTGC was tested, and the “PBM E-score” value was -0.0873.
In the case of AAGCAGAG, the “PBM E-score” value is reported as -0.0736.
AAGGCCTT was tested, and the “PBM E-score” value was -0.172.
CTTGTTAC was tested, and the “PBM E-score” value was 0.129.
In the case of ATGGTTAA, the “PBM E-score” value is reported as -0.101.
With CGACTACC the “PBM E-score” value was -0.26.
ATGCGACC was tested, and the “PBM E-score” value was 0.0993.
With GCATCCAA the “PBM E-score” value was -0.218.
With ACTAGCTC the “PBM E-score” value was -0.0963.
In the case of GCGCGTCA, the “PBM E-score” value is reported as 0.125.
For CCGTCTCA, the “PBM E-score” value was 0.0687.
AATTTATA was tested, and the “PBM E-score” value was 0.274.
CATGAAGG was tested, and the “PBM E-score” value was -0.0613.
For ATTGGAGG, the “PBM E-score” value was -0.0921.
CATTCGGG was tested, and the “PBM E-score” value was -0.0997.
For AGCAAGTG, the “PBM E-score” value was -0.108.
For CAATACGG, the “PBM E-score” value was 0.0201.
CCGTCGCA was tested, and the “PBM E-score” value was 0.176.
With CAGGCTTC the “PBM E-score” value was -0.0885.
With CAGTACAG the “PBM E-score” value was -0.104.
With AATTAGTC the “PBM E-score” value was 0.218.
With AATCCCCT the “PBM E-score” value was 0.129.
With GCCCAACA the “PBM E-score” value was -0.05.
In the case of AGCTGATG, the “PBM E-score” value is reported as 0.129.
In the case of CCGGACTC, the “PBM E-score” value is reported as -0.0383.
With CAGTGCGA the “PBM E-score” value was -0.0982.
With CCGAAGCC the “PBM E-score” value was -0.254.
ATAGTCGG was tested, and the “PBM E-score” value was -0.291.
GGCGCGGA was tested, and the “PBM E-score” value was 0.0771.
In the case of ACGTCCCC, the “PBM E-score” value is reported as -0.0726.
AGTGTGAC was tested, and the “PBM E-score” value was -0.0574.
For CAGTAGGG, the “PBM E-score” value was -0.176.
In the case of ACAGTAGA, the “PBM E-score” value is reported as 0.0868.
For ATCCTAGA, the “PBM E-score” value was -0.0572.
With AGGGTACG the “PBM E-score” value was -0.0843.
In the case of GCCGGTCC, the “PBM E-score” value is reported as -0.186.
In the case of GCAGAGAA, the “PBM E-score” value is reported as -0.0727.
With CCGGGGAA the “PBM E-score” value was -0.0992.
CGCGAGCC was tested, and the “PBM E-score” value was 0.0932.
With AATGGAAA the “PBM E-score” value was 0.24.
In the case of CGGCTCAC, the “PBM E-score” value is reported as -0.0168.
AGTCCGAT was tested, and the “PBM E-score” value was -0.00525.
AATCACAA was tested, and the “PBM E-score” value was 0.0518.
In the case of GTCTCAAC, the “PBM E-score” value is reported as 0.129.
For AAGGGCAT, the “PBM E-score” value was -0.154.
AGCGGTAC was tested, and the “PBM E-score” value was -0.187.
For AAAGGATA, the “PBM E-score” value was 0.19.
ATTGAGAG was tested, and the “PBM E-score” value was -0.0617.
For ACTGGTCA, the “PBM E-score” value was -0.142.
For GATTATAA, the “PBM E-score” value was 0.23.
With ATATAGGG the “PBM E-score” value was 0.00617.
GTCGCCCA was tested, and the “PBM E-score” value was -0.101.
With CACACTGA the “PBM E-score” value was -0.215.
In the case of CTCACGCC, the “PBM E-score” value is reported as 0.0411.
For GTACAGAA, the “PBM E-score” value was -0.0717.
For GGGAGACC, the “PBM E-score” value was -0.223.
With GTGATGTA the “PBM E-score” value was 0.0612.
AACCCGCC was tested, and the “PBM E-score” value was 0.0991.
GGTTAAAA was tested, and the “PBM E-score” value was 0.256.
With ACACGTAA the “PBM E-score” value was -0.00152.
CTACTACC was tested, and the “PBM E-score” value was 0.0108.
For TGCCTTAA, the “PBM E-score” value was -0.0177.
CCGAGCGC was tested, and the “PBM E-score” value was 0.0289.
In the case of AATTGTTC, the “PBM E-score” value is reported as 0.193.
In the case of TAGTCTAA, the “PBM E-score” value is reported as -0.00981.
In the case of CCTAAACA, the “PBM E-score” value is reported as 0.247.
In the case of ATATCCAA, the “PBM E-score” value is reported as 0.101.
For GCAAGGCC, the “PBM E-score” value was -0.0689.
For CGCTAACG, the “PBM E-score” value was 0.109.
With TTCTCCAA the “PBM E-score” value was 0.187.
GAAAGGGC was tested, and the “PBM E-score” value was -0.164.
AAGACAAG was tested, and the “PBM E-score” value was 0.0417.
AATCGATC was tested, and the “PBM E-score” value was 0.0401.
For GCAAGTAC, the “PBM E-score” value was -0.0853.
With CTGAGTCC the “PBM E-score” value was -0.263.
AGATGTGG was tested, and the “PBM E-score” value was -0.152.
AGCATGAC was tested, and the “PBM E-score” value was -0.0535.
CTTGTCAC was tested, and the “PBM E-score” value was 0.00511.
With CGTGGGTA the “PBM E-score” value was -0.106.
CCTATGCC was tested, and the “PBM E-score” value was -0.0377.
